From article PMC6451091 come the findings set out here.

Some of the results follow. For part of these data: At the low end of the ranking the order means little. For part of these data: Measured with an extract: partners may take part in the binding.

Common to all, as to details: 20 mM HEPES pH 7.9, 100 mM NaCl, 1 mM DTT, 0.2 mg/mL BSA, 0.02% Triton X-100, 2% milk, 0.4 mg/mL salmon testes DNA; 1 h; temperature not stated; high values mean tight binding; double strand, one strand shown; sequences stand for … in GCCTAGCAC…GTGCTAGGTCTTGATTCGCTTGACGCTGCTG
The target in one assay is PU.1 (IVT) (UniProt P17947). Nature of the assay: protein-binding microarray (PBM).
For assay [1], the target named is PU.1 (endogenous, THP-1 nuclear extract) (UniProt P17947). In words: nuclear extract protein-binding microarray (nextPBM).
The target of assay [2] is T1, FLI1 (endogenous, THP-1 nuclear extract) (UniProt Q01543).
T1 sequence: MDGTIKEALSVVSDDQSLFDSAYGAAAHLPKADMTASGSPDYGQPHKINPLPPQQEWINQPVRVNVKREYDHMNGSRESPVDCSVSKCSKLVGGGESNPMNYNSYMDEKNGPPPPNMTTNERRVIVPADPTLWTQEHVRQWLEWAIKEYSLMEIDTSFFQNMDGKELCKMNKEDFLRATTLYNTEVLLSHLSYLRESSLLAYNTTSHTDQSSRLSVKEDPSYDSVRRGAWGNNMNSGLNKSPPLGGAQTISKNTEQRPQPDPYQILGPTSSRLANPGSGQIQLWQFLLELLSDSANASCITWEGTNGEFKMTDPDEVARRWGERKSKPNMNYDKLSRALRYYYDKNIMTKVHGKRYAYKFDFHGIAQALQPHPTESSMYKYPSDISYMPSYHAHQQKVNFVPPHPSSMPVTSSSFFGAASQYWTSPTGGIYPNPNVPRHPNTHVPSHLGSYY
The description is as above.

Take GATTTGAGGAAGTGAAATGG: the binding signal was 6.75 z-score in the assay with PU.1 (IVT), 6.91 z-score in assay [1] and 2.89 z-score in assay [2].

Consider GGAGAGAGGAAGTGCAGAGT, for which the binding signal with PU.1 (IVT) amounted to 4.14 z-score; in assay [1], 4.27 z-score; in assay [2] it was 2.72 z-score.

Take TTAAAGAGGAAGTAGGAGTT: the binding signal with PU.1 (IVT) stood at 7.33 z-score; in assay [1] it was 6.99 z-score; in assay [2], 3.57 z-score.

Consider AAGGATGGGAAGTACTGTGG, for which the binding signal with PU.1 (IVT) came out at 2.42 z-score; in assay [1], 2.18 z-score; in assay [2], 1.04 z-score.

Consider TGAAAGAGGAAGTGCAATCA, for which the binding signal came to 7.72 z-score with PU.1 (IVT), 7.13 z-score in assay [1] and 3.94 z-score in assay [2].

For the sequence CAGAGGGGGAAGTGGTCAAC, the binding signal amounted to 3.72 z-score with PU.1 (IVT), 3.98 z-score in assay [1] and 2.01 z-score in assay [2].

As to CAAAAAGGGAAGTGTATGCT, the values for the binding signal (in the assay with PU.1 (IVT); in assay [1]; in assay [2]) were 6.78 z-score, 6.77 z-score and 2.71 z-score, respectively.

Regarding CGAAAGTGGAAGTGCTAAAC, the binding signal in the assay with PU.1 (IVT) was determined as 3.35 z-score; in assay [1], 2.88 z-score; in assay [2], 1.8 z-score.

Consider AAAAAAAGGAACTGGCTAGA, for which the binding signal was 4.49 z-score with PU.1 (IVT), 4 z-score in assay [1] and 1.31 z-score in assay [2].

Take CAAAAGAGGAAGTCAAGCTG: the binding signal worked out at 7.88 z-score with PU.1 (IVT), 7.38 z-score in assay [1] and 4.12 z-score in assay [2].

TTGTGGGGGAAGTGGCTTTG: the results for the binding signal (with PU.1 (IVT); in assay [1]; in assay [2]) were 2.85 z-score, 2.91 z-score and 1.51 z-score, respectively.

For the sequence AGAAAAAGGAAGTGAGCAGC, the binding signal with PU.1 (IVT) is 5.58 z-score; in assay [1] it was 6.03 z-score; in assay [2], 2.81 z-score.

For ACAAAGGGGAAGTGCTAGGG, the binding signal in the assay with PU.1 (IVT) was found to be 6.35 z-score; in assay [1], 6.49 z-score; in assay [2], 2.75 z-score.

As for GACAACAGGAAGTCCCATAG, the binding signal with PU.1 (IVT) stood at 3.35 z-score; in assay [1], 3.93 z-score; in assay [2] it was 4.19 z-score.

AGACAGGGGAAGTGATCTGC: the binding signal came out at 3.9 z-score in the assay with PU.1 (IVT), 3.47 z-score in assay [1] and 1.88 z-score in assay [2].

Consider AAAAAGAGGAAGTACATTAA, for which the values for the binding signal (in the assay with PU.1 (IVT); in assay [1]; in assay [2]) were 8.68 z-score, 7.54 z-score and 4.22 z-score, respectively.

On to ACTAGGAGGAAGTGGGAAAC, for which the binding signal with PU.1 (IVT) came to 4.97 z-score; in assay [1], 4.86 z-score; in assay [2], 2.82 z-score.

Consider TGGAAAGGGAAGTGTTTACT, for which the binding signal is 3.97 z-score in the assay with PU.1 (IVT), 3.78 z-score in assay [1] and 1.85 z-score in assay [2].

As for CAAAGGAGGAAGTGCTACAC, the binding signal in the assay with PU.1 (IVT) stood at 5.85 z-score; in assay [1], 6.26 z-score; in assay [2], 3.01 z-score.

Consider CAGAAAGGGAAGTGGATGCT, for which the figures for the binding signal (with PU.1 (IVT); in assay [1]; in assay [2]) were 5.22 z-score, 5.32 z-score and 2.21 z-score, respectively.

Take AGAAAAAGGAACTGAAGAAC: the values for the binding signal (in the assay with PU.1 (IVT); in assay [1]; in assay [2]) were 3.87 z-score, 3.24 z-score and 1.07 z-score, respectively.

Regarding TAAAGAGGGAAGTGAATATT, the values for the binding signal (in the assay with PU.1 (IVT); in assay [1]; in assay [2]) were 5.18 z-score, 4.79 z-score and 2.24 z-score, respectively.

Regarding AAAAAGAGGAAGAGAGAAAA, the binding signal worked out at 5.63 z-score with PU.1 (IVT), 6.25 z-score in assay [1] and 2.14 z-score in assay [2].

In the case of GAAATGGGGAAGTCAGGACA, the binding signal was determined as 6.55 z-score in the assay with PU.1 (IVT), 6.65 z-score in assay [1] and 2.6 z-score in assay [2].

As for AGTTTAAGGAAGTGATTCTA, the binding signal with PU.1 (IVT) amounted to 6.01 z-score; in assay [1], 5.89 z-score; in assay [2] it was 2.83 z-score.

For CAAAAAAGGAAGTGGCTGTG, the binding signal with PU.1 (IVT) came out at 5.51 z-score; in assay [1] it was 6.1 z-score; in assay [2] it was 3 z-score.

ATAAAGAGGAAGCCTGTGTG: the binding signal stood at 3.76 z-score with PU.1 (IVT), 3.92 z-score in assay [1] and 1.92 z-score in assay [2].

GAAAAGAGGAAGTCAAACGA: the binding signal in the assay with PU.1 (IVT) amounted to 8.02 z-score; in assay [1], 7.32 z-score; in assay [2], 4.15 z-score.

On to AAAAGAAGGAAGTGTCCTTC, for which the binding signal in the assay with PU.1 (IVT) turned out to be 5.43 z-score; in assay [1], 5.56 z-score; in assay [2], 2.58 z-score.

Turning to ACAGGAAGGAAGTGGCCAGA, the binding signal with PU.1 (IVT) is 2.07 z-score; in assay [1], 2.24 z-score; in assay [2], 2.95 z-score.

With CTGGTGAGGAAGTGTGAGAC, the values for the binding signal (in the assay with PU.1 (IVT); in assay [1]; in assay [2]) were 2.86 z-score, 2.97 z-score and 1.99 z-score, respectively.

For the sequence AGCAACAGGAAGTGCACGAC, the binding signal in the assay with PU.1 (IVT) worked out at 4.4 z-score; in assay [1], 4.21 z-score; in assay [2] it was 4.86 z-score.

On to GAAAACAGGAAGTCACATAG, for which the binding signal with PU.1 (IVT) worked out at 7.27 z-score; in assay [1] it was 7.04 z-score; in assay [2], 4.79 z-score.

AGAAAGAGGAAGTGACTCAG: the binding signal in the assay with PU.1 (IVT) stood at 8.06 z-score; in assay [1] it was 7.42 z-score; in assay [2], 4.41 z-score.

As for GTGGGGAGGAAGTGGCCCCT, the binding signal with PU.1 (IVT) is 2.88 z-score; in assay [1], 3.19 z-score; in assay [2], 2.82 z-score.

With GGAAAGAGGAAGTGCTAGAG, the results for the binding signal (with PU.1 (IVT); in assay [1]; in assay [2]) were 7.79 z-score, 7.37 z-score and 4.44 z-score, respectively.

For GGAAAAGGGAAGTGAGGTAC, the binding signal with PU.1 (IVT) is 5.93 z-score; in assay [1], 6.33 z-score; in assay [2], 2.71 z-score.

With CAAAAGGGGAAGTCGGGCGG, the binding signal was found to be 7.32 z-score with PU.1 (IVT), 7.05 z-score in assay [1] and 3.15 z-score in assay [2].

As for CAAAAGAGGAAGCCGAGGTG, the binding signal worked out at 4.84 z-score with PU.1 (IVT), 5.85 z-score in assay [1] and 2.46 z-score in assay [2].

In the case of CAGAAAGGGAAGTCCAAGAT, the binding signal with PU.1 (IVT) amounted to 3.75 z-score; in assay [1], 4.34 z-score; in assay [2] it was 1.65 z-score.

Turning to ACAAATAGGAACTGTGCCCC, the values for the binding signal (with PU.1 (IVT); in assay [1]; in assay [2]) were 1.51 z-score, 1.61 z-score and 0.477 z-score, respectively.

For the sequence TGAAAGAGGAAGTGCAACCG, the binding signal in the assay with PU.1 (IVT) was 7.49 z-score; in assay [1], 7.25 z-score; in assay [2], 4.02 z-score.

For ACAAAGAGGAAGTCCAAGTA, the binding signal was found to be 6.13 z-score in the assay with PU.1 (IVT), 6.81 z-score in assay [1] and 3.07 z-score in assay [2].

Consider AAGAAGCGGAAGTGAAAGAC, for which the figures for the binding signal (in the assay with PU.1 (IVT); in assay [1]; in assay [2]) were 6.8 z-score, 6.92 z-score and 4.94 z-score, respectively.

Take AAGAGGAGGAAGTGAGAGAG: the binding signal was 4.33 z-score with PU.1 (IVT), 4.26 z-score in assay [1] and 2.53 z-score in assay [2].

For the sequence CTTTAGAGGAACTCCCTGCC, the binding signal in the assay with PU.1 (IVT) came out at 1.94 z-score; in assay [1], 2.61 z-score; in assay [2] it was 0.6 z-score.

On to CAATTGAGGAAGTCACAAAT, for which the results for the binding signal (in the assay with PU.1 (IVT); in assay [1]; in assay [2]) were 6.21 z-score, 6.52 z-score and 2.68 z-score, respectively.

In the case of GAGAAGAGGAAGTGAGATCT, the binding signal in the assay with PU.1 (IVT) amounted to 6.45 z-score; in assay [1], 6.78 z-score; in assay [2], 3.36 z-score.

Take CTGTTAGGGAAGTGCCTGGG: the binding signal with PU.1 (IVT) stood at 3.51 z-score; in assay [1] it was 3.67 z-score; in assay [2], 1.19 z-score.

As for ACAAAAAGGAACTGCGCCCC, the results for the binding signal (with PU.1 (IVT); in assay [1]; in assay [2]) were 1.46 z-score, 1.72 z-score and 0.971 z-score, respectively.

For the sequence TGAAAGAGGACGTGCAACCA, the binding signal in the assay with PU.1 (IVT) came out at 0.427 z-score; in assay [1], 0.497 z-score; in assay [2], 0.528 z-score.

As for GAGAAGAGGAAGTGCCCCGT, the binding signal in the assay with PU.1 (IVT) worked out at 6.56 z-score; in assay [1], 6.82 z-score; in assay [2], 3.7 z-score.

As to GAAAAGAGGAAGTTGCTTAC, the binding signal with PU.1 (IVT) was 9.03 z-score; in assay [1], 7.49 z-score; in assay [2], 4.2 z-score.

As for GAAAAGAGGAAGTCAGACTA, the binding signal in the assay with PU.1 (IVT) came to 8.15 z-score; in assay [1] it was 7.56 z-score; in assay [2], 3.79 z-score.

In the case of GAAAAGAGGAAGTCAAACCC, the binding signal in the assay with PU.1 (IVT) came out at 8.14 z-score; in assay [1], 7.4 z-score; in assay [2], 3.87 z-score.

Regarding AGAAAGAGGAACTCTGTCTC, the values for the binding signal (with PU.1 (IVT); in assay [1]; in assay [2]) were 6.01 z-score, 6.68 z-score and 2.29 z-score, respectively.

As for AGGAAGGGGAAGTATTTGAG, the binding signal is 5.89 z-score with PU.1 (IVT), 5.54 z-score in assay [1] and 3.13 z-score in assay [2].

On to TTGAGGAGGAAGTGCATGTA, for which the binding signal was determined as 4.35 z-score with PU.1 (IVT), 4.26 z-score in assay [1] and 2.73 z-score in assay [2].

In the case of AGGCAGAGGAAGTGGAATCT, the binding signal is 3.38 z-score in the assay with PU.1 (IVT), 3.06 z-score in assay [1] and 2.63 z-score in assay [2].

Consider TTACAGAGGAAGTGAGGATT, for which the binding signal with PU.1 (IVT) amounted to 3.36 z-score; in assay [1], 3.07 z-score; in assay [2], 2.76 z-score.
